Laboratory results from the RNAGym collection of RNA variant scans (doi:10.7554/elife.90254).
The source gives no read counts; variants with many changes may rest on few reads.

B1: LINE1-mini (parent)
chain: GGCAGAGCUCAACACAGCGUGGCAAAGUGGCUGUGGCUAGACUGCC

Variants of: B1
Experiment: self-cleavage, relative activity (ratio to wild type); higher = more cleavage; in vitro, sequencing; the parent is a self-cleaving ribozyme
G22A G27U G35U gave a self-cleavage of 0.28.
G22A G27U G36A gave a self-cleavage of 0.28.
G22A G29C U34G C42A C45G showed a self-cleavage of 0.01.
In the case of G22A G29U C31A C37U U43G C45U, the self-cleavage is reported as 0.16.
G22A G29U C31A U38C showed a self-cleavage of 0.38.
G22A G30A C42A showed a self-cleavage of 0.26.
G22A G30A G40C gave a self-cleavage of 0.35.
In the case of G22A G30A U32A U38A, the self-cleavage is reported as 0.42.
G22A G30A U34A G35A A41U showed a self-cleavage of 0.09.
With G22A G33A A39U the self-cleavage was 0.11.
With G22A G33A C37U A41G the self-cleavage was 0.07.
In the case of G22A G33C G40A, the self-cleavage is reported as 0.02.
In the case of G22A G33U C37A, the self-cleavage is reported as 1.89.
Work on G22A G33U U38A yielded a self-cleavage of 0.08.
With G22A G35A A41C U43A the self-cleavage was 0.02.
Variant G22A G35A C42U has a self-cleavage of 0.15.
With G22A G35C A39G U43G the self-cleavage was 0.11.
With G22A G35U C37U the self-cleavage was 0.02.
For G22A G35U C46U, the self-cleavage was 0.19.
With G22A G35U U38C C45A the self-cleavage was 0.03.
Work on G22A G36C G40C U43A yielded a self-cleavage of 0.02.
Work on G22A G36C G40U yielded a self-cleavage of 0.32.
Work on G22A G36U G44A C45G yielded a self-cleavage of 0.01.
G22A G40A C45G gave a self-cleavage of 0.03.
With G22A U28A C31A the self-cleavage was 0.31.
Variant G22A U28A C31G G35A has a self-cleavage of 0.06.
Work on G22A U28A G29A G30C C31A yielded a self-cleavage of 0.98.
G22A U28A G35U showed a self-cleavage of 0.03.
In the case of G22A U28C C31A C37G, the self-cleavage is reported as 0.03.
With G22A U28C C37U the self-cleavage was 0.05.
With G22A U28C C42U the self-cleavage was 0.05.
For G22A U28C G40U, the self-cleavage was 0.03.
For G22A U28G C45G, the self-cleavage was 0.47.
G22A U28G G33C G35A showed a self-cleavage of 0.03.
G22A U32C G36A U43C gave a self-cleavage of 0.03.
For G22A U34A G36A C46U, the self-cleavage was 0.03.
G22A U34G G44U showed a self-cleavage of 0.03.
In the case of G22A U34G U38G, the self-cleavage is reported as 0.03.
Variant G22A U38G C42A has a self-cleavage of 0.03.
In the case of G22A U38G G44C, the self-cleavage is reported as 0.02.
For G22C A24C A25C G30U U34A C46G, the self-cleavage was 0.01.
With G22C A24C A39G the self-cleavage was 0.04.
In the case of G22C A24C U32A A39G C46U, the self-cleavage is reported as 0.09.
G22C A24C U38G gave a self-cleavage of 0.02.
Work on G22C A24C U43A yielded a self-cleavage of 0.02.
For G22C A24U C37U G44A, the self-cleavage was 0.01.
G22C A24U G44U C46U showed a self-cleavage of 0.01.
For G22C A24U U32C, the self-cleavage was 0.1.
Work on G22C A25G A41C C46A yielded a self-cleavage of 0.06.
Work on G22C A25U G30A A41C C46U yielded a self-cleavage of 0.01.
In the case of G22C A26G G27C U43A, the self-cleavage is reported as 0.04.
G22C A26U A39G gave a self-cleavage of 0.02.
G22C A26U G33A showed a self-cleavage of 0.19.
For G22C A26U G36C U43G, the self-cleavage was 0.
In the case of G22C A39U C46A, the self-cleavage is reported as 0.05.
Variant G22C A41C U43C has a self-cleavage of 0.09.
In the case of G22C A41U G44A, the self-cleavage is reported as 0.12.
With G22C C23A C42G the self-cleavage was 0.07.
For G22C C23A G36U A39U G40A, the self-cleavage was 0.09.
Variant G22C C23A G40C has a self-cleavage of 0.02.
For G22C C23A U28A C46U, the self-cleavage was 0.26.
For G22C C23A U32G C37G A39C C42A C45A, the self-cleavage was 0.02.
Variant G22C C23G G27U U32G U34G has a self-cleavage of 0.12.
For G22C C23U C37G, the self-cleavage was 0.01.
Variant G22C C23U C42A has a self-cleavage of 0.03.
Work on G22C C23U C42G yielded a self-cleavage of 0.06.
In the case of G22C C31A G40A, the self-cleavage is reported as 0.03.
G22C C31A U34G showed a self-cleavage of 0.13.
Work on G22C C31G C37G yielded a self-cleavage of 0.02.
Work on G22C C31G U32A G40C yielded a self-cleavage of 0.01.
For G22C C31U U34C, the self-cleavage was 0.03.
Variant G22C C37A C46U has a self-cleavage of 0.02.
Variant G22C G27A C31U G40U C46A has a self-cleavage of 0.02.
Work on G22C G27A G33U U38C C46U yielded a self-cleavage of 0.03.
Work on G22C G27U C42U yielded a self-cleavage of 0.16.
G22C G27U G35C showed a self-cleavage of 0.1.
In the case of G22C G27U U28C, the self-cleavage is reported as 0.6.
Variant G22C G29A G44U has a self-cleavage of 0.14.
Variant G22C G29C U43G has a self-cleavage of 0.01.
Variant G22C G30A C31A has a self-cleavage of 0.1.
G22C G30U C37A U43A gave a self-cleavage of 0.06.
With G22C G30U C45U the self-cleavage was 0.66.
Variant G22C G30U G35C has a self-cleavage of 0.05.
With G22C G30U G35U A41C the self-cleavage was 0.12.
With G22C G33A C42U the self-cleavage was 0.06.
Work on G22C G33C C42G G44U yielded a self-cleavage of 0.02.
Work on G22C G35U G36C yielded a self-cleavage of 0.07.
Variant G22C G40U A41C G44U has a self-cleavage of 0.04.
With G22C U28A G30U the self-cleavage was 0.12.
G22C U28G U32A showed a self-cleavage of 0.07.
For G22C U32G G35A C37A, the self-cleavage was 0.01.
In the case of G22C U34C C42U, the self-cleavage is reported as 0.02.
For G22C U34C G36A, the self-cleavage was 0.06.
Variant G22C U34G G40U has a self-cleavage of 0.08.
G22C U38A A41G C42U showed a self-cleavage of 0.31.
In the case of G22U A24C U38A, the self-cleavage is reported as 0.47.
G22U A24C U38C gave a self-cleavage of 0.32.
G22U A24U A39C showed a self-cleavage of 0.16.
G22U A25C A26G G30A showed a self-cleavage of 0.66.
Work on G22U A25C G29C G35U G40U yielded a self-cleavage of 0.03.
In the case of G22U A25C U32C G33U A41C, the self-cleavage is reported as 0.03.
With G22U A25G C31U U34C the self-cleavage was 0.03.
G22U A25G G27A C31A G44A showed a self-cleavage of 0.07.
G22U A25G U32G C46U gave a self-cleavage of 0.05.
Variant G22U A25U A41U C45A has a self-cleavage of 0.1.
G22U A25U U38A A39G showed a self-cleavage of 0.14.
In the case of G22U A26C C46G, the self-cleavage is reported as 1.81.
G22U A26C G29U gave a self-cleavage of 0.24.
With G22U A26G C45U the self-cleavage was 0.75.
In the case of G22U A26U C31U C42G, the self-cleavage is reported as 0.29.
With G22U A26U C45G the self-cleavage was 0.77.
In the case of G22U A26U U34C, the self-cleavage is reported as 0.32.
In the case of G22U A39G C45U, the self-cleavage is reported as 0.11.
G22U A39G G44A gave a self-cleavage of 0.17.
For G22U A41C G44C, the self-cleavage was 0.28.
For G22U A41U C46G, the self-cleavage was 0.49.
Work on G22U C23A G27U yielded a self-cleavage of 0.61.
Work on G22U C23A G29A yielded a self-cleavage of 0.6.
With G22U C23A G30U the self-cleavage was 0.96.
In the case of G22U C23A G35U, the self-cleavage is reported as 0.54.
With G22U C23A G36A the self-cleavage was 0.16.
Variant G22U C23A U32C U38A has a self-cleavage of 0.07.
G22U C23A U34A A39U gave a self-cleavage of 0.27.
In the case of G22U C23A U43C, the self-cleavage is reported as 0.07.
Variant G22U C23G C31G C46A has a self-cleavage of 0.1.
For G22U C23G C42U G44C, the self-cleavage was 0.14.
With G22U C23G G40A G44U the self-cleavage was 0.08.
In the case of G22U C23G U28C U34G G35C C37A, the self-cleavage is reported as 0.03.
G22U C23U C31U gave a self-cleavage of 0.65.
For G22U C31A A41U C42G, the self-cleavage was 0.02.
G22U C31A U32C G35A showed a self-cleavage of 0.09.
Variant G22U C31A U43A has a self-cleavage of 0.06.
G22U C31U G35U G40C C42A showed a self-cleavage of 0.07.
For G22U C37A A39G C45U, the self-cleavage was 0.05.
Work on G22U C37A C46G yielded a self-cleavage of 0.03.
G22U C37A U43C showed a self-cleavage of 0.09.
G22U G27A C46G gave a self-cleavage of 0.97.
Variant G22U G27A G29A G30C C31A has a self-cleavage of 1.73.
Work on G22U G27A G29U yielded a self-cleavage of 0.21.
With G22U G27A G35A U38C A41G the self-cleavage was 0.18.
In the case of G22U G27C A39U, the self-cleavage is reported as 1.22.
With G22U G27C A41C the self-cleavage was 0.07.
Work on G22U G27C C46A yielded a self-cleavage of 0.24.
G22U G27C U38C C42U gave a self-cleavage of 0.09.
In the case of G22U G27U C37A, the self-cleavage is reported as 0.03.
Variant G22U G27U G29A has a self-cleavage of 2.46.
G22U G27U G44A showed a self-cleavage of 0.36.
For G22U G29A G44C, the self-cleavage was 0.16.
G22U G29C G36U gave a self-cleavage of 0.02.
G22U G29C G44C gave a self-cleavage of 0.07.
G22U G29U C31A showed a self-cleavage of 0.1.
For G22U G29U G33A C46G, the self-cleavage was 0.06.
With G22U G29U U32G C46A the self-cleavage was 0.07.
Work on G22U G30A C37U yielded a self-cleavage of 0.04.
In the case of G22U G30A U32C, the self-cleavage is reported as 0.08.
G22U G30C G36U C45U gave a self-cleavage of 0.11.
With G22U G30U U32C A41G the self-cleavage was 0.09.
In the case of G22U G33A C37U, the self-cleavage is reported as 0.17.
With G22U G33A G40U the self-cleavage was 0.3.
Variant G22U G33C U38G G40U has a self-cleavage of 0.03.
Variant G22U G33U C46U has a self-cleavage of 0.06.
With G22U G33U G35A the self-cleavage was 0.04.
Variant G22U G33U G36A C37A A41U has a self-cleavage of 0.11.
G22U G35C A39U gave a self-cleavage of 0.09.
In the case of G22U G35C G36C, the self-cleavage is reported as 0.07.
Variant G22U G35C G36U has a self-cleavage of 0.08.
In the case of G22U G35U C46A, the self-cleavage is reported as 0.31.
